Reference: PubChem BioAssay AID1745853 (National Center for Advancing Translational Sciences (NCATS), 2022)
The list shows a part of the results. The main result of the screen is listed elsewhere. These columns were measured beside it and carry no call.

How the values were obtained:
Assay in all cases: Primary Screen for Target Class Profiling of Small Molecule Inhibitors of Methyltransferases
[1] = target: Glycine N-methyltransferase (Homo sapiens) (UniProt Q14749); settings: purified enzyme, MTase-Glo SAH luminescence; measured here: GNMT inhibition; at 40 µM; stronger effect = lower value
Summary of the method: (§1)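 Each enzyme was assayed with SAM and its substrate. SAH formation detected by MTase-Glo luminescence; single-point 40 uM screen[…].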

[2] = target: Guanidinoacetate N-methyltransferase (Homo sapiens) (UniProt Q14353); settings: purified enzyme, MTase-Glo SAH luminescence; measured here: GAMT inhibition; at 40 µM; stronger effect = lower value
Summary of the method: as §1

[3] = target: Histamine N-methyltransferase (Homo sapiens) (UniProt P50135); settings: purified enzyme, MTase-Glo SAH luminescence; measured here: HNMT inhibition; at 40 µM; stronger effect = lower value
Summary of the method: as §1

[4] = target: Nicotinamide N-methyltransferase (Homo sapiens) (UniProt P40261); settings: purified enzyme, MTase-Glo SAH luminescence; measured here: NNMT inhibition; at 40 µM; stronger effect = lower value
Summary of the method: as §1

[5] = target: Phenylethanolamine N-methyltransferase (Homo sapiens) (UniProt P11086); settings: purified enzyme, MTase-Glo SAH luminescence; measured here: PNMT inhibition; at 40 µM; stronger effect = lower value
Summary of the method: as §1
% is set by controls: 0 for no effect and ±100 for the full control effect.

Compound | activity change, negative = inhibition [1] | activity change, negative = inhibition [2] | activity change, negative = inhibition [3] | activity change, negative = inhibition [4] | activity change, negative = inhibition [5]
CC1(C(=O)NC2CCCCCC2)Cn2c(cc3occc32)C(=O)N1C1CCCCC1 (stereo not drawn) | -2.79% | 1.56% | 5.04% | -10.5% | -4.59%
CCCn1c(=O)c2ccc(C(=O)NC(C)C)cc2n2c(SCC(=O)Nc3ccc(Cl)cc3)nnc12 | 2.49% | 0% | 8.4% | 0.164% | 4.52%
Cc1cc(CN2CCc3nn(C)c(=O)n3CC2)n(C)n1 | -0.883% | -5.11% | 0.978% | 0.607% | 1.99%
COc1cc(/C=C/C(=O)OC[C@H]2O[C@@H](OC3OC=C(C(=O)O)C4C(O)CC(C)(O)C34)[C@H](O)[C@@H](O)[C@@H]2O)cc(OC)c1O (stereo partly drawn) | 4.45% | 7.85% | 8.85% | -3.61% | 7.8%
C=C1CC2C3(C)C=CC(=O)OC(C)(C)C3CC(OC(C)=O)C2(C)C2C(=O)OC(C)C(=O)C12C (stereo not drawn) | 2.86% | 4.93% | 6.07% | -9.93% | 1.81%
COCCC1(NC(=O)c2ccccc2)CCN(C(=O)c2ocnc2C)CC1 | -0.199% | -1.35% | 0.732% | 0.405% | -0.814%
CCN(CC)CCNC(=O)c1cc2n(n1)CC(C)(C(=O)NCc1ccc(F)cc1)N(C)C2=O (stereo not drawn) | 10.1% | 0% | 6.27% | 10.7% | 4.07%
COc1cc(CNC(=O)c2nc(C(O)c3ccccn3)oc2C)cc(OC)c1 (stereo not drawn) | -7.12% | -1.66% | -1.66% | -11.3% | -12.1%
COc1ccc(C(=O)CSc2nnc3n(C)c(=O)c4ccc(C(=O)NC5CCCCC5)cc4n23)cc1 | 2.54% | 0% | 2.65% | 2.31% | 4.06%
CCCn1c(=O)c2ccccc2n2c(=O)n(CC(=O)Nc3ccc(C)cc3C)nc12 | 0.229% | 2.83% | 3.74% | -0.227% | 1.27%
Nc1ccc(-c2nc3ccc(-c4nc5ccc(N)cc5[nH]4)cc3[nH]2)cc1 | -22% | -10.7% | -13.4% | -15% | -18.3%
Cc1cc(C)cc(NC(=O)Cn2c(=O)oc3cc(S(=O)(=O)N4CCCCC4)ccc32)c1 | -3.42% | -0.109% | -2.85% | 1.02% | -10.3%
CCN(CC)c1cc(CCC(=O)NCc2cc(F)ccc2F)ccn1 | -3.83% | -8.41% | -32.5% | -11.5% | -9.99%
Cc1cc(Cl)ccc1OCC(=O)N[C@@H]1CCOC[C@H]1OCC(=O)O | -2.25% | -6.29% | -1.4% | -8.12% | -4.18%
Cc1ccc(C(=O)Cn2nc3n(C)c(=O)c4ccc(C(=O)NC5CCCC5)cc4n3c2=O)c(C)c1 | 6.3% | 0% | 3.74% | 1.11% | 4.38%
CCN(CC)c1cc(CCC(=O)N2CCC(C)CC2)ccn1 | 0.276% | -1.74% | -33.1% | -2.13% | 0.273%

Compound | activity change, negative = inhibition [1] | activity change, negative = inhibition [2] | activity change, negative = inhibition [3] | activity change, negative = inhibition [4] | activity change, negative = inhibition [5]
COc1cccc(N2C(=O)c3cc4occc4n3CC2(C)C(=O)NC2CCC(C)CC2)c1 (stereo not drawn) | -8.27% | 3.25% | -10.6% | -2.51% | -7.85%
COc1cccc(CN2C(=O)c3cc4occc4n3CC2(C)C(=O)NC2CCCC(C)C2C)c1OC (stereo not drawn) | -10.6% | -0.029% | -2.54% | -9.27% | -5.31%
CC(Oc1ccc2[nH]nc(/C=C/c3cnn(CCO)c3)c2c1)c1c(Cl)cncc1Cl (stereo not drawn) | -14.8% | – | -11.5% | – | –
COCCCNc1nc2c(-c3cccc(F)c3)nnn2c2ccc(Cl)cc12 | 3.52% | 0.792% | 10.6% | 6.45% | 2.43%
Cc1ccc([C@H]2Nc3ccc(S(=O)(=O)Nc4cccc(Cl)c4C)cc3[C@H]3C=CC[C@H]32)cc1 | -9.9% | -10.2% | -18.8% | -26.6% | -11.9%
CCc1ccc(N2C(=O)c3cc(C(C)(C)C)nn3CC2(C)C(=O)NCc2ccccc2)cc1 (stereo not drawn) | -5.74% | 0% | -2.22% | -6.64% | -1.68%
Cc1cnc(C(=O)NC2C[C@H]3CC[C@@H](C2)N3S(=O)(=O)c2ccc(C)c(F)c2)cn1 (stereo partly drawn) | -6.25% | -5.8% | -3.91% | -14.9% | -17.9%
CC(=O)Nc1ccc(CN2CC(Oc3ccc4c(c3)OCO4)C2)cc1 | -6.5% | -9.84% | -4.34% | -13.1% | -10.6%
CS(=O)(=O)CCNCc1ccc(-c2ccc3ncnc(Nc4ccc(OCc5cccc(F)c5)c(Cl)c4)c3c2)o1 | -3.98% | 3.2% | 1.2% | -7.85% | 1.39%
CN(CCCNC(=O)C1(CCO)CC12CCOCC2)C1CCCCC1 (stereo not drawn) | -3.06% | -2.36% | -2.32% | -0.81% | 1.8%
C=CC(=O)Nc1cccc(Nc2nc(Nc3ccc(N4CCN(C(C)=O)CC4)cc3OC)ncc2C(F)(F)F)c1 | -19.2% | 0.484% | -26.2% | -14.3% | -16%
C/C(=N\N=C(N)N)c1ccc(NC(=O)Nc2ccc(/C(C)=N/N=C(N)N)cc2)cc1 | – | -22.5% | – | -30.9% | -26.4%
COCCNS(=O)(=O)c1cc(C(=O)O)cc(-c2ccncc2)c1 | -4.25% | -1.65% | 0.41% | -4.95% | 7.6%
O=C1Cc2c([nH]c3ccc([N+](=O)[O-])cc23)-c2ccccc2N1 | – | -4% | – | -21.3% | -3.26%
OCC1=C[C@@H](O)[C@@H]2C=CO[C@@H](O[C@@H]3O[C@H](CO)[C@@H](O)[C@H](O)[C@H]3O)[C@H]12 | 4.7% | 7.33% | 6.04% | -5.08% | 3.33%
